Source: patent US20210363269A1 (ALX ONCOLOGY, published 2021)

B1: S115 scFv-Fc (scFv)
scFv: ETVLTQSPATLSVSPGERATLSCRASQTVGSKLAWHQQKPGQAPRLLIYDATNRATGISDRFSGSGSGTDFTLTISSLQTEDSAVYYCQQYYYWPPYRFGGGTKVEIKGQSSRSSGGGGSSGGGGSDVQLVESGGGVVRPGESLRLSCAASGFSFSSYAMNWVRQAPGEGLEWVSRINSGGGGTDYAESVKGRFTISRDNSENTLYLQMNSLRAEDTAVYYCAKQYDWNSFFDYWGLGALVTVSSSL[letters of human IgG1 Fc with C220S (EU numbers) and a few adjoining residues left out]
B2: S117 scFv-Fc (scFv)
scFv: ETVLTQSPATLSVSPGERATLSCRASQTVGSKLAWHQQKPGQAPRLLIYDATNRATGIPDRFSGSGSGTDFTLTISSLQTEDSAVYYCQQYYYWPPYRFGGGTKVEIKGQSSRSSGGGGSSRGGGSDVQLVESGGGVVRPGESLRLSCAASGFSFSSYAMNWVRQAPGEGLEWVSRINSGGGGTDYAESVKGRFTISRDNSENTLYLQMNSLRAEDTAVYYCAKQYDWNGFFDYWGLGALVTVSSSL[letters of human IgG1 Fc with C220S A231V (EU numbers) and a few adjoining residues left out]
B3: S118 scFv-Fc (scFv)
scFv: ETVLTQSPATLSVSPGERATLSCRASQTVGSKLAWHQQKPGQAPRLLIYDASRRATGIPDRFSGSGSGTDFTLTISSLQTEDSAVYYCQQYYYWPPYRFGGGTKVEIKGQSSRSSGGGGSSGGGGSDVQLVESGGGVVRPGESLRLSCAASGFSFSSYAMNWVRQAPGEGLEWVSRINSGGGGTDYAESVKGRFTISRDNSENTLYLQMNSLRAEDTAVYYCAKQYDWNGFFDYWGLGALVTVSSSL[letters of human IgG1 Fc with C220S (EU numbers) and a few adjoining residues left out]
B4: S116 scFv-Fc (scFv)
scFv: ETVLTQSPATLSVSPGERATLSCRASQTVGSKLAWHQQKPGQAPRLLIYDATNRATGISDRFSGSRSGTDFTLTISSLQTEDSAVYYCQQYYYWPPYRFGGGTKVEIKGQSSRSSGGGGSSGGGGSDVQLVESGGGVVRPGESLRLSCAASGFSFSSYAMNWVRQAPGEGLEWVSRINSGGGGTDYAESVKGRFTISRDNSENTLYLQMNSLRAEDTAVYYCAKQYDWNSFFDYWGLGALVTVSSSL[letters of human IgG1 Fc with C220S (EU numbers) and a few adjoining residues left out]
B5: S135 scFv-Fc (scFv)
scFv: EIVLTQSPATLSVSPGERVTFSCRASQNVRSDIAWYQQKPGQAPRLLIYAASSRDTGIPDRFSGSGSGTDFTLTISSLQSEDFGVYYCQQYYDWPPFTFGGGTKVEIKGQSSRSSGGGGSSGGGGSDVQLVESGGGVVRPGESLRLSCAASGFSFSIYAMSWVRQAPGEGLEWVSTIGADDTYYADSVKGRFTISRDNSKNTLYLQMNSLRAEDTAVYYCAKDSTVGWSGDFFDYWGLGTLVTVSSSL[letters of human IgG1 Fc with C220S (EU numbers) and a few adjoining residues left out]
B6: S9 scFv-Fc (scFv)
scFv: ALTQPSSVSANPGETVKITCSGDNSAHYYYGWYQQKSPGSAPVTVIYYNDKRPSGIPSRFSGSASGSTATLIITGVQVEDEAVYFCGSADSSNPAIFGAGTTLTVLGQSSRSSGGGGSSGGGGSMAAVTLDESGGGLQTPGRALSLVCRGSGFSISSYNMGWVRQAPGKGLEFIASIGSDGSSTHYAPAVKGRATITRDVGQSTVRLQLNNLRAEDTGTYFCAKDAYQCSYATCNDYLDTIDAWGHGTEVIVSSSL[letters of human IgG1 Fc with C220S (EU numbers) and a few adjoining residues left out]
B7: S12 scFv-Fc (scFv)
scFv: AVTQPASVSANPGETVKITCSGDSSYYGWYQQKSPGSAPVTVIYDDNKRPSNIPSRFSGSKSGSTGTLTITGVQADDEAVYFCGNEDNSYVAIFGAGTTLTVLGQSSRSSGGGGSSGGGGSMAAVTLDESGGGLQTPGGALSLVCKASGFTFSSYNMGWVRQAPGKGLEFVAGIYIASGDLGTTYGAAVQGRATISRDDGQSTVRLQLNNLRAEDTGTYFCAKSAGGCSAHSCDTYIADSIDAWGHGTEVIVSSSL[letters of human IgG1 Fc with C220S (EU numbers) and a few adjoining residues left out]

Biological target: T1, mouse 129 SIRP-α D1 domain (mouse (129 strain), UniProt P97797 32-150)
T1 construct: also called m129
T1 chain: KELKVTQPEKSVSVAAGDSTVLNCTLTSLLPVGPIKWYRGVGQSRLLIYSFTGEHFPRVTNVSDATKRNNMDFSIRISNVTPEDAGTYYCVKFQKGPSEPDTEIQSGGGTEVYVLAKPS
Test: SPR, captured scFv-Fc
Procedure, shortened: (§1)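 Pre-filtered culture media supplied the scFv-Fc antibody clones, which were captured by anti-human IgG Fc amine-coupled (about 4000 RU) to a GLC chip on a ProteOn XPR36. SIRP analytes were flowed in PBS pH 7.4 with 0.01% Tween-20 at 25° C. Interspot and buffer-blank responses were subtracted from the data, which were then fitted to a 1:1 Langmuir model. Dissociation rate constants (koff) were derived from this fitting.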

Binder | binding result
B1 | no binding (tested: 100 nM)
B2 | no binding (tested: 100 nM)
B3 | no binding (tested: 100 nM)
B4 | no binding (tested: 100 nM)
B5 | no binding (tested: 100 nM)
B6 | no binding (tested: 100 nM)
B7 | no binding (tested: 100 nM)

Biological target: T2, NOD mouse SIRP-α D1 domain (mouse (NOD strain))
T2 chain: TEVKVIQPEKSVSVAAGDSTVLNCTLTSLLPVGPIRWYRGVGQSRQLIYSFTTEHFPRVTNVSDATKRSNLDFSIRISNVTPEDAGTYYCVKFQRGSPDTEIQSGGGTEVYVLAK
Test: SPR, captured scFv-Fc
Procedure, shortened: as §1

Binder | binding result
B1 | no binding (tested: 100 nM)
B2 | no binding (tested: 100 nM)
B3 | no binding (tested: 100 nM)
B4 | no binding (tested: 100 nM)
B5 | no binding (tested: 100 nM)

The binders below were run against T3, C57BL/6 mouse SIRP-α D1 domain (mouse (C57BL/6 strain), UniProt P97797 32-148) (assay: SPR, captured scFv-Fc).
T3 sequence: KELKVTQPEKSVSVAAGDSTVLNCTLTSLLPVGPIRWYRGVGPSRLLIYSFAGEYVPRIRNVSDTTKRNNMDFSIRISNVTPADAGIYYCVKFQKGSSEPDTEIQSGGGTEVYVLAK
Procedure, shortened: as §1

Binder | binding result
B1 | no binding (tested: 100 nM)
B2 | no binding (tested: 100 nM)
B3 | no binding (tested: 100 nM)
B4 | no binding (tested: 100 nM)
B5 | no binding (tested: 100 nM)
B6 | no binding (tested: 100 nM)

What follows are binders tested against T4, human SIRP-α v1 D1 domain (human, UniProt P78324 31-149) (assay: SPR, captured scFv-Fc, 100 nM analyte).
T4 construct: also called human v1; human α v1
Protocol: (§2) Binding of the antibody clones to various SIRP proteins was determined using surface plasmon resonance (SPR) detection on a ProteOn XPR36 instrument (Bio-Rad, Hercules, Calif.) using phosphate buffered saline (PBS, pH 7.4) supplemented with 0.01% Tween-20 (PBST) as running buffer. The pre-filtered media containing the secreted antibodies was used directly for the assay. First, anti-Human IgG Fc (BR-1008-39, GE Healthcare) was amine-coupled onto a GLC sensor chip to generate the capture surfaces for the antibodies. About 4000 RU per flow cell of immobilized anti-human IgG Fc is achieved. Each clone is screened using the same method as follows.
(§3) (1) ‥5-10 uL of pre-filtered media in 10 mM sodium acetate buffer (pH4.5) was injected for 2 mins at 30 ul/min;
(§4) The koff rates of binding of each clone to each SIRP analyte were determined using SPR (Table C). The SPR screening conditions have been described herein, and the Koff values were determined using Langmuir kinetic fittings. The CD47 blocking properties (block, non-block, kick-off) are described in the last column of the Table C. Each antibody is identified according to its corresponding SEQ ID NO. SIRP analyte sequences are as follows: CV1-3, SEQ ID NO:18; v1, SEQ ID NO:5; v2, SEQ ID NO:6; cyno1, SEQ ID NO:11; cyno2, SEQ ID NO:12; m129, SEQ ID NO:7; NOD, SEQ ID NO: 8; BL6, SEQ ID NO:9; sirpb1, SEQ ID NO:13; sirpg, SEQ ID NO:15.

T4 sequence (P78324 31-149 limits assumed): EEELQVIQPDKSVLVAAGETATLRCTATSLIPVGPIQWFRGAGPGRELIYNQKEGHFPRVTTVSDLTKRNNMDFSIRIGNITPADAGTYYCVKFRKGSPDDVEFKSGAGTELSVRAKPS

Binder | koff [s⁻¹]
B1 | 7.86e-06
B2 | 1.2e-05
B3 | 9.17e-06
B4 | 2.84e-05
B5 | 0.000658
B6 | 0.000129
B7 | 0.000101

What follows are binders tested against T5, human SIRPγ isoform 1 (human, UniProt Q9P1W8 29-147) (assay: SPR, captured scFv-Fc, 100 nM analyte).
T5 construct: also called sirpg; sirp-g
Protocol: as §2, §3, §4

T5 sequence (Q9P1W8 29-147 limits assumed): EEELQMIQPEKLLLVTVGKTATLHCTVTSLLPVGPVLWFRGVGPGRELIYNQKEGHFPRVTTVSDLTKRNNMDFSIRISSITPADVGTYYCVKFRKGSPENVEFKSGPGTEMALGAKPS

Binder | koff [s⁻¹]
B1 | 3.34e-05
B2 | 4.3e-06
B3 | 1.13e-05
B4 | 8.25e-05
B5 | 0.00146
B6 | 0.0071
B7 | 0.000307

Biological target: T6, high affinity SIRP-α D1 variant CV1-3 (human)
T6 chain: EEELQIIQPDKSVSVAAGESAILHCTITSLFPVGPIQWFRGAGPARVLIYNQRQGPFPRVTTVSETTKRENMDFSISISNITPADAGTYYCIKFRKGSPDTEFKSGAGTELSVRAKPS
Test: SPR, captured scFv-Fc, 100 nM analyte
Protocol: as §2, §3, §4

Binder | koff [s⁻¹]
B1 | 0.000484
B2 | 0.000275
B3 | 0.000247
B4 | 0.00048
B5 | 0.00363
B6 | 0.000168
B7 | 0.0515

What follows are binders tested against T7, human SIRP-α v2 D1 domain (human) (assay: SPR, captured scFv-Fc, 100 nM analyte).
T7 construct: also called human v2; human α v2
Protocol: as §2, §3, §4

Binder | koff [s⁻¹]
B1 | 1.95e-05
B2 | 3.4e-05
B3 | 4.12e-05
B4 | 5.07e-05
B5 | 8.78e-05
B6 | 0.00014
B7 | 0.000168

Biological target: T8, cynomolgus SIRP-α D1 domain (SEQ ID NO:11) (cynomolgus, UniProt Q5TFQ8 30-148 (human entry), limits assumed)
T8 construct: also called cyno1
T8 chain: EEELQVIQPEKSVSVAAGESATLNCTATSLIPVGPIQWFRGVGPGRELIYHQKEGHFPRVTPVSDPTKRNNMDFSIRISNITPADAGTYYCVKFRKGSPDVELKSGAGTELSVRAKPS
Test: SPR, captured scFv-Fc, 100 nM analyte
Protocol: as §2, §3, §4

Binder | koff [s⁻¹]
B1 | 2.22e-05
B2 | 1.83e-05
B3 | 6.97e-05
B4 | 7.01e-05
B5 | 0.000473
B6 | 0.000338
B7 | 0.00117

Biological target: T9, cynomolgus SIRP-α D1 domain (SEQ ID NO:12) (cynomolgus, UniProt Q5TFQ8 30-148 (human entry), limits assumed)
T9 construct: also called cyno2; Cyno2
T9 chain: T8 chain with E19D, A27V, T28S, V42A, H51N, Q52L, P62A
Test: SPR, captured scFv-Fc, 100 nM analyte
Protocol: as §2, §3, §4

Binder | koff [s⁻¹]
B1 | 6.91e-05
B2 | 5.92e-05
B3 | 8.06e-05
B4 | 0.00012
B5 | 0.000388
B6 | 0.00027
B7 | 0.000524

Biological target: T2, NOD mouse SIRP-α D1 domain
Test: SPR, captured scFv-Fc, 100 nM analyte
Protocol: as §2, §3, §4

Binder | koff [s⁻¹]
B6 | 0.0181
B7 | 0.026

What follows are binders tested against T3, C57BL/6 mouse SIRP-α D1 domain (assay: SPR, captured scFv-Fc, 100 nM analyte).
Protocol: as §2, §3, §4

Binder | koff [s⁻¹]
B7 | 0.00198

These binders were tested against T10, human SIRPβ isoform 1 (human, UniProt O00241 30-148) (assay: SPR, captured scFv-Fc, 100 nM analyte).
T10 construct: also called sirpb1; Sirpb1
Protocol: as §2, §3, §4

T10 sequence (O00241 30-148 limits assumed): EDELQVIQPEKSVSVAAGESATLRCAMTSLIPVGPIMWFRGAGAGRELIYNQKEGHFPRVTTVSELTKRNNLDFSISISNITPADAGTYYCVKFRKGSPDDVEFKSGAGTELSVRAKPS

Binder | koff [s⁻¹]
B3 | 1.31e-05
B5 | 0.000521
B6 | 0.000103
B7 | 0.000173

Positions count from the first letter of the chain named.
